Measured values published in the RNAGym collection of RNA variant scans (doi:10.1093/nar/gkz1192).
The source gives no read counts; variants with many changes may rest on few reads.

B1: CPEB3 Ribozyme (parent)
chain: UAACAGGGGGCCACAGCAGAAGCGUUCACGUCGCAGCCCCUGUCAGAUUCUGGUGAAUCUGCGAAUUCUGCUGUAUAUCUC

Variants of: B1
Experiment: self-cleavage, relative activity (ratio to wild type); higher = more cleavage; in vitro, sequencing
Outline: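 Relative activity compares each variant's cleaved/total read fraction with that of the unmutated ribozyme. To get these fractions, barcoded CPEB3 ribozyme libraries from rounds of error-prone PCR were transcribed with T7 RNA polymerase for 5 hours at 37°C and then given 15 min of DNase I treatment before EDTA was added. The RNAs were reverse transcribed with template switching and sequenced on Illumina, and DNA sequencing linked barcodes to variants. A minimum of 5 reads applied, and three batches were averaged.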

Row | Variant | self-cleavage
1 | A21G U60A A64G U67C G73A | 0.12
2 | A21G U60A U76C | 0.19
3 | A21G U60A U80C | 0.28
4 | A21G U60C U74G | 0.69
5 | A21G U60C U78A | 0.17
6 | A21G U60G C81A | 0.27
7 | A21G U66C U67C U72A U74G | 0.23
8 | A21G U67A C71U U78C | 0.22
9 | A21G U67A C79U | 0.24
10 | A21G U67C C68G | 0.15
11 | A21G U69A U72C | 0.12
12 | A21G U69C U72C C81U | 0.11
13 | A21G U72A U76C | 0.32
14 | A21G U72C U74A | 0.82
15 | A21G U72C U76C | 0.72
16 | A21G U72C U78C | 0.7
17 | A21U A28G G53A U72C | 0.15
18 | A21U A28G U51A | 0.33
19 | A21U A28G U51C A65G | 0.08
20 | A21U A28U U31C U72A | 0.09
21 | A21U A35C U54C U60A U69C U72A | 0.13
22 | A21U A35G A45U A56G U78A | 0.54
23 | A21U A35G A64G A75U | 1.13
24 | A21U A35G U48C U69C | 0.18

Row | Variant | self-cleavage
25 | A21U A35G U54A U67C U72C | 0.39
26 | A21U A35U U49C U58C U78C | 0.06
27 | A21U A45C A64G U78C | 0.04
28 | A21U A45G A47G A56C U67A U76C | 0.07
29 | A21U A45G U49C C50U U69A | 0.1
30 | A21U A45G U51A U80C | 0.28
31 | A21U A45U U78C | 0.23
32 | A21U A47G A56G U72A | 0.09
33 | A21U A47G A77U C81U | 0.29
34 | A21U A47G U80C | 0.38
35 | A21U A56G A57G U80C | 0.17
36 | A21U A56G U58A U72C | 0.12
37 | A21U A56G U60C | 0.06
38 | A21U A56G U69C | 0.1
39 | A21U A57G U60C U72C | 0.11
40 | A21U A57G U72C | 0.48
41 | A21U A57U U74C | 0.14
42 | A21U A64G U69C A75G | 0.06
43 | A21U A64U U78C | 0.08
44 | A21U A65U U72C | 0.24
45 | A21U C23A U25C U43C A45G A56C | 0.11
46 | A21U C23A U54C U72C | 0.04
47 | A21U C23U U25C A35U | 0.17
48 | A21U C27U A35U | 0.14

Row | Variant | self-cleavage
49 | A21U C29A C34U | 0.09
50 | A21U C29U U74A | 0.26
51 | A21U C32A U51C U58C | 0.11
52 | A21U C32G C37A U49C | 0.09
53 | A21U C32U U41C U48C A57C U78C | 0.08
54 | A21U C34G A45U U60C | 0.1
55 | A21U C37U U54G U69A U72C | 0.19
56 | A21U C38A A56G | 0.08
57 | A21U C38A U66C | 0.13
58 | A21U C39A C81G | 0.34
59 | A21U C39A U43C | 0.36
60 | A21U C40A U41G U49C U51A U76G A77G | 0.05
61 | A21U C50U U60C U80C | 0.08
62 | A21U C59G U60C A64G | 0.09
63 | A21U G22C U49C | 0.23
64 | A21U G22C U51G A64G U69A | 0.11
65 | A21U G22U U25C U41A | 0.17
66 | A21U G24A A56G A64G U66A | 0.12
67 | A21U G24A C40U A56G A65G | 0.07
68 | A21U G24A U54A | 0.11
69 | A21U G24U U41C U58A | 0.11
70 | A21U G30A U54C | 0
71 | A21U G30A U58G U80A | 0.08
72 | A21U G30U G63C | 0.16

Row | Variant | self-cleavage
73 | A21U G33A U78C | 0.07
74 | A21U G36A A47G A65G | 0.07
75 | A21U G36C C37G A57U | 0.16
76 | A21U G42A A57G | 0.49
77 | A21U G42C U72C U78C | 0.12
78 | A21U G52A U60C | 0.17
79 | A21U U25A U54C G63A A64C | 0.22
80 | A21U U25C A28G C37U U41C U49C A64G | 0.05
81 | A21U U25C A28G U60C | 0.08
82 | A21U U25C A35U A65G A77G | 0.24
83 | A21U U25C A45U U78A | 0.05
84 | A21U U25C A56U U78C | 0.04
85 | A21U U25C A65U | 0.27
86 | A21U U25C C39A G61A C62U U80A | 0.09
87 | A21U U25C G30C U41C A75U | 0.13
88 | A21U U25C U31C A45G | 0.18
89 | A21U U25C U43A U60G U72A | 0.11
90 | A21U U25C U54C | 0.16
91 | A21U U25C U72A | 0.09
92 | A21U U25G G46U C79U | 0.19
93 | A21U U25G U31A U41A A47U U74A | 0.08
94 | A21U U26A C32G C39U U43A U67C | 0.01
95 | A21U U26A U49A U72C | 0.08
96 | A21U U26A U51C U74C U78C | 0.5

Row | Variant | self-cleavage
97 | A21U U26A U58A | 0.42
98 | A21U U26C A56G C68A A75G | 0.05
99 | A21U U26C A56G U67C | 0.13
100 | A21U U26C C59G U60C U66G U69A | 0.14
101 | A21U U26C U41C U48C A56U | 0.25
102 | A21U U26C U43C U51C U67C U72C U80C | 0.06
103 | A21U U26C U51C U69C | 0.06
104 | A21U U26C U54A | 0.26
105 | A21U U31A C62U | 0.15
106 | A21U U31A C68A | 0.07
107 | A21U U31A G42A G70C | 0.03
108 | A21U U31C A45G A64U G70U | 0.13
109 | A21U U31C G46A U54A U66C | 0.06
110 | A21U U31C U60A | 0.11
111 | A21U U41A A57U U74C | 0.3
112 | A21U U41A A65G U69C U80C | 0.17
113 | A21U U41A C50U U80C | 0.13
114 | A21U U41A U58A U60C U74A | 0.08
115 | A21U U41C A47G U49C U54A A56G U74C | 0.36
116 | A21U U41C A57G C62A U67C C79U | 0.06
117 | A21U U41C G52A U69C | 0.19
118 | A21U U41C U43G A57G U80A | 0.05
119 | A21U U41C U48C A77G | 0.09
120 | A21U U41C U51C C62U U67G | 0.15

Row | Variant | self-cleavage
121 | A21U U41C U51C U67G | 0.15
122 | A21U U43A U72A | 0.4
123 | A21U U43C A47G | 0.11
124 | A21U U43C A77U U80A | 0.14
125 | A21U U43C U78A U80C | 0.19
126 | A21U U43G A64G U76C | 0.07
127 | A21U U49C U66A | 0.34
128 | A21U U49C U67A U69A | 0.05
129 | A21U U49C U69C | 0.05
130 | A21U U51A U72C | 0.51
131 | A21U U51C U69C U78C | 0.24
132 | A21U U54C U80C | 0.44
133 | A21U U58C U80A | 0.26
134 | A21U U58G U67C U74A U78C | 0.05
135 | A21U U69A U74A | 0.12
136 | A21U U69G A77G | 0.21
137 | A21U U72C C81A | 0.76
138 | A21U U72C U76C | 0.47
139 | G22A A28U C32U G70U C79A | 0.07
140 | G22A A28U G36A U66C | 0.07
141 | G22A A35G A56G | 0.75
142 | G22A A35G A64G | 0.35
143 | G22A A35G U43C | 0.47
144 | G22A A35G U72C | 0.54

Row | Variant | self-cleavage
145 | G22A A35U A64G U76G | 0.01
146 | G22A A35U C40U U74A U80C | 0.13
147 | G22A A47G A56U | 0.21
148 | G22A A47G A64G U72C | 0.05
149 | G22A A47G A65G | 0.23
150 | G22A A47G U48C U49C U69A | 0.16
151 | G22A A56G A57G U60C U69C U72C U80A | 0
152 | G22A C23U U78C | 0.09
153 | G22A C29U U31C A35G | 0.04
154 | G22A C32U C44G U54A A57U | 0.04
155 | G22A C40U U72C | 0.21
156 | G22A G24A U74C | 0.12
157 | G22A G30C U60A A64G C68U | 0.07
158 | G22A G36A U58A A64G A77G | 0.04
159 | G22A G42U A45U U49A U51G U60C U74A | 0.07
160 | G22A G53A U60A G73A | 0.14
161 | G22A U25A U31G U41A U60A | 0.1
162 | G22A U25C C68G | 0.14
163 | G22A U26C A28G U43C A45G A56G | 0.04
164 | G22A U26C A28U U43C A45G | 0.19
165 | G22A U26C A35G U43C A45G | 0.14
166 | G22A U26C U41C A45G A57G A75U | 0.16
167 | G22A U26G U49C | 0.18
